Assay results published in PubChem BioAssay (NCATS).
Values joined by “and” are separate entries in the source; they are usually repeats but may differ in a detail not shown here. Identical values can stand only once. Inconclusive results, whose numbers are uncertain, are shown with a selection of clear calls. For some assays here: Potencies of inconclusive entries are doubtful fits and often do not repeat. Active and inactive are the calls of the source. Unless noted, the call rests on the fitted dose curve; in most records, active means well fitted curve in the direction sought with a large enough effect; inconclusive means small, poorly fitted or top-dose-only effect, or another doubt; inactive means no such curve, though single readings can be large; an effect the other way counts as inactive or inconclusive.

Experiments:
[1] = tested on: HEK293; experiment: Cytotoxic Profiling of Annotated Libraries Using Quantitative High-Throughput Screening (AID 1296008); details: Five cell lines viability, CellTiter-Glo ATP luminescence, 48-72 h; max response: stronger effect = lower value; further: nearly all actives have a fitted effect of over 60% in size; on max response: on the % scale 0 is the no-effect control and ±100 the full control effect
In short: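 Cells exposed to compounds for 48 or 72 hr at 37 degrees Celsius. Viability read as ATP-coupled luminescence with CellTiter-Glo after 10 min at room temperature.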

[2] = qHTS for identification of novel therapeutic agents for treatment of microphthalmiaassociated transcription factor (MiT) renal cell carcinoma (RCC) (AID 1963991; calls by dose curve); details: TFE3-RCC UOK109 viability, CellTiter-Glo, 48 h
In short: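 Viability of three TFE3-fusion renal carcinoma lines measured by CellTiter-Glo after 48 h treatment with each of 1912 compounds at 11 concentrations. Responses scaled between DMSO (100%) and empty wells (0%) before curve fitting.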

[3] = target: Cytochrome P450 2C19 (Homo sapiens) (UniProt P33261); experiment: qHTS for inhibitors of CYP2C19 against the NCATS DSHEA and TCM libraries (AID 1919974); details: CYP2C19 enzyme inhibition, luminescence qHTS;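 further: luminescence from luciferin released by CYP2C19 oxidation of a pro-luciferin substrate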
In short: (§1)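 Concentration-response screening with isoform-matched pro-luciferin substrates. The CYP reaction was initiated by NADPH regenerating solution and ran 30-45 min in darkness at room temperature.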

[4] = target: Cytochrome P450 1A2 (Homo sapiens) (UniProt P05177); experiment: qHTS for inhibitors of CYPIA2 against the NCATS DSHEA and TCM libraries (AID 1919976)
In short: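 Enzyme and pro-luciferin substrate, or substrate alone as no-enzyme background, are pre-incubated with test samples for 15 min at room temperature. NADPH regeneration system (1x final) initiates a 30-45 min dark reaction; luciferase detection reagent follows before luminescence reading.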

[5] = target: Nuclear receptor subfamily 1 group I member 2 (Homo sapiens) (UniProt O75469); experiment: Dual reporter qHTS for agonist of Pregnane X Receptor (hPXR) against the NCATS DSHEA and TCM libraries: Luminescence readout (AID 1920059)
In short: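 hPXR-Luc HepG2 cells, 2000/well in 5% charcoal-stripped FBS medium, attached 5 h, then exposed 24 h at 37C to compounds. Viability by CellTiter-Fluor, then luciferase luminescence with ONE-Glo.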

[6] = target: Nuclear receptor subfamily 1 group I member 2 (Homo sapiens) (UniProt O75469); experiment: Dual reporter qHTS for antagonist of Pregnane X Receptor (hPXR) against the NCATS DSHEA and TCM libraries: Luminescence Readout (AID 1920060); details: hPXR dual reporter cells, luciferase luminescence, antagonist mode
In short: (§2)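 Rifampicin-stimulated (2 uM final) hPXR-luciferase HepG2 cells were treated for 24 h with DSNP/TCM substances. Viability came from CellTiter-Fluor fluorescence, reporter activity from ONE-Glo luminescence.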

[7] = Dual reporter qHTS for antagonist of Pregnane X Receptor (hPXR) against the NCATS DSHEA and TCM libraries: Fluorescence Readout (AID 1920061); details: PXR dual reporter cells, antagonist mode
In short: as §2

[8] = target: Cytochrome P450 2D6 (Homo sapiens) (UniProt P10635); experiment: qHTS for inhibitors of CYP2D6 against the NCATS DSHEA and TCM libraries (AID 1919972); details: CYP2D6 enzymatic inhibition, luminescence qHTS
In short: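 CYP2D6 enzyme with pro-luciferin substrate in manufacturer buffer (typically 100 mM KPO4), preincubated 15 min RT with substances (most at 19.5 nM upward); NADPH regeneration system (1x) started 30–45 min RT reaction; P450-Glo luminescence read after 30 min; quinidine as intraplate control.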

[9] = target: Cytochrome P450 2C9 (Homo sapiens) (UniProt P11712); experiment: qHTS for inhibitors of CYP2C9 against the NCATS DSHEA and TCM libraries (AID 1919973)
In short: as §1
Potency means the concentration at half of the fitted maximal effect; tags describe the fitted curve by direction and shape.

Chain of UniProt O75469 (O75469 whole entry, looked up): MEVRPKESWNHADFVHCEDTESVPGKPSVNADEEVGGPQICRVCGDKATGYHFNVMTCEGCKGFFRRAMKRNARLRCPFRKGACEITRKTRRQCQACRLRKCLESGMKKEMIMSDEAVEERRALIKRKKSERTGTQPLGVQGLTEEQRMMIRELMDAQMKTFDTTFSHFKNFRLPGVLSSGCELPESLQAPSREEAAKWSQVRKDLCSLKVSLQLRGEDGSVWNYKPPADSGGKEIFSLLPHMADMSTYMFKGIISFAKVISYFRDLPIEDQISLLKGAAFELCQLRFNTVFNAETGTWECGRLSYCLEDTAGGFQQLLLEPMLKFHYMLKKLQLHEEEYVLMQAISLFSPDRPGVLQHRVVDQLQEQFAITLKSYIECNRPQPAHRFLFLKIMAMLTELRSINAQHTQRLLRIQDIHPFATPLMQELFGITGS
Chain of UniProt P33261 (P33261 whole entry, looked up, canonical isoform): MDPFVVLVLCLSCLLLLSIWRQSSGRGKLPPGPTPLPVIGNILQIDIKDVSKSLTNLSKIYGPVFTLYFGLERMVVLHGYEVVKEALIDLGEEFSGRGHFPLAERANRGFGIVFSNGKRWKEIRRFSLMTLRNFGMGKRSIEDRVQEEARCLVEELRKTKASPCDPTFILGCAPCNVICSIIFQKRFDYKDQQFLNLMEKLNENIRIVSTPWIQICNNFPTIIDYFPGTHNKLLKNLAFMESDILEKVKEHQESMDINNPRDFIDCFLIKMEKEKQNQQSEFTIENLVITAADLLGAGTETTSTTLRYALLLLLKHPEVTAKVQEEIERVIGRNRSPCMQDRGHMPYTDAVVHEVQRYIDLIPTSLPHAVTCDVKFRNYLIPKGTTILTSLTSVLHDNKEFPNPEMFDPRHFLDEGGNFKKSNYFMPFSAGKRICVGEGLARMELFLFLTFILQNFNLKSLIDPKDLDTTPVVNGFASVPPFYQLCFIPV
Chain of UniProt P05177 (P05177 whole entry, looked up): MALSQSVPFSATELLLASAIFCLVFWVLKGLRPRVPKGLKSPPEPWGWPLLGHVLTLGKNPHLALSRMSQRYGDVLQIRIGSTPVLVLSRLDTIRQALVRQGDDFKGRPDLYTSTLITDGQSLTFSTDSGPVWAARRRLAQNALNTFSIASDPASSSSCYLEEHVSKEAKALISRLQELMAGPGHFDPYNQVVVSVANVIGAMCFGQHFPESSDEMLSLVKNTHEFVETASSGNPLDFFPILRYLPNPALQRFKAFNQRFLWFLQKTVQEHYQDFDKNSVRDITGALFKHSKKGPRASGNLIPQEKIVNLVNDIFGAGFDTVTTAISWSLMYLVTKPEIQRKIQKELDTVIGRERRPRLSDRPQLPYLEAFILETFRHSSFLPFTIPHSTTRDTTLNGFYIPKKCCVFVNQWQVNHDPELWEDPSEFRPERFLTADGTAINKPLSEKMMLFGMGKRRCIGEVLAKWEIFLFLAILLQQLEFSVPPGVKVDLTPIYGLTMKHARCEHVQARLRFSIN
Chain of UniProt P10635 (P10635 whole entry, looked up): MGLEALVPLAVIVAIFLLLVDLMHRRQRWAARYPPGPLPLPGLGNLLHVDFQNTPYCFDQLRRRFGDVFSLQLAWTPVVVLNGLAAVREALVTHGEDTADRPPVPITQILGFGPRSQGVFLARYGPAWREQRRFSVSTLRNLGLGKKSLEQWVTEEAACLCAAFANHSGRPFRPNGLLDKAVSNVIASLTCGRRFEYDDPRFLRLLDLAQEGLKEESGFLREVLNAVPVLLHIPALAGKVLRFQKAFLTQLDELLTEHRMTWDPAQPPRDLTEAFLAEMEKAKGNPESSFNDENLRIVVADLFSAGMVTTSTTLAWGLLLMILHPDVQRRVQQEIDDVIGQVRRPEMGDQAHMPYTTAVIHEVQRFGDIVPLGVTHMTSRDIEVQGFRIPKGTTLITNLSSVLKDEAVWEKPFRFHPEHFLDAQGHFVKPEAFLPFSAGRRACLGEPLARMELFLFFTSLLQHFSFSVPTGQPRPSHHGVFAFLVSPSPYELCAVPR
Chain of UniProt P11712 (P11712 whole entry, looked up): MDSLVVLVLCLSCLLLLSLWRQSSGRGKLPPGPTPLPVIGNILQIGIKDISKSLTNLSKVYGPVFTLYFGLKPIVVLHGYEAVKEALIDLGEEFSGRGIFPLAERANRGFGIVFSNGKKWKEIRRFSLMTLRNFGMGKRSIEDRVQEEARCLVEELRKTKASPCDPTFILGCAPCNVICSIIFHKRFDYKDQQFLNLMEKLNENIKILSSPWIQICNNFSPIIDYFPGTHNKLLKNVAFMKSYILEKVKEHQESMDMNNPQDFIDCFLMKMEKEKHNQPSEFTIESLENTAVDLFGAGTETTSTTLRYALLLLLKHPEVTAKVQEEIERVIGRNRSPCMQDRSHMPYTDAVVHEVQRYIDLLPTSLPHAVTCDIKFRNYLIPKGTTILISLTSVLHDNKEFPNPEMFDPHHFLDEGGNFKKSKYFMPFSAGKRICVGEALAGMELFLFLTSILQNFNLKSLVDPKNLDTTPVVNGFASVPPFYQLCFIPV

COP(=O)(OC)OC=C(Cl)Cl
max response [1]: inactive: -1.59%

CC(=O)OCC1=C(C(=O)O)N2C(=O)[C@@H](N)[C@@H]2SC1
Potency [1]: inconclusive: 33.2 µM [inhibitor, single point]

COC(=O)[C@@]1(C)C(=O)C=C[C@]2(C)c3c(O)cc(C(C)C)cc3[C@H](O)[C@@H](OC(C)=O)C12 (stereo partly specified)
Potency [1]: inconclusive: 14.2 µM [inhibitor, single point]

C=C[C@@H]1CN2CCC1C[C@@H]2[C@@H](O)c1ccnc2ccccc12 (stereo partly specified)
Potency [2]: inconclusive: 18.7 µM [falling, partial curve] | Potency [1]: active: 18.7 µM

Nc1ccc(N)cc1
Potency [1]: inconclusive: 33.5 µM [inhibitor, single point]

CC(=O)Nc1ccc(OC[C@](C)(O)C(=O)Nc2ccc([N+](=O)[O-])c(C(F)(F)F)c2)cc1
Potency [2]: inconclusive: 33.2 µM [falling, partial curve, poor fit] | max response [1]: inactive: -11.2% | outcome [1]: inactive

CC1=C(O)C(=O)C=C2C1=CC=C1[C@@]2(C)CC[C@@]2(C)[C@@H]3C[C@](C)(C(=O)O)CC[C@]3(C)CC[C@]12C
Potency [2]: active: 2.64 µM | Potency [1]: active: 1.48 µM

CN1CCN(c2ccc([N+](=O)[O-])c3no[n+]([O-])c23)CC1
Potency [2]: inconclusive: 37.2 µM [falling, single point] | Potency [1]: inconclusive: 37.2 µM [inhibitor, single point] and inconclusive: 29.1 µM [inhibitor, single point]

CC(C)(O)[C@H]1O[C@H]2CC[C@@]3(C)[C@@](O)(CC[C@H]4Cc5c([nH]c6ccccc56)[C@@]43C)C2=CC1=O
max response [1]: inactive: 2.88%

CCN(CC)C(=O)c1ccc(C2=CC3(CCNCC3)Oc3cccc(O)c32)cc1
Potency [2]: inconclusive: 29.6 µM [falling, partial curve, poor fit] | Potency [1]: inconclusive: 37.2 µM [inhibitor, single point] and inconclusive: 16.4 µM [inhibitor, single point]

C=C(CO)C(=O)O[C@H]1CC(=C)[C@@H]2C[C@H](O)C(=C)[C@@H]2[C@H]2OC(=O)C(=C)[C@@H]21
Potency [3]: active: 2.24 µM | Potency [4]: active: 2.51 µM | Potency [5]: inconclusive: 2.82 µM [activator, full curve] | Potency [6]: inconclusive: 25.1 µM [inhibitor, single point] | Potency [7]: inconclusive: 14.1 µM [inhibitor, partial curve]

CCOC(=O)c1c(C(C#N)=CN)c2ccc(Cl)c(Cl)c2n1C
Potency [2]: inconclusive: 37.2 µM [falling, single point] | max response [1]: inactive: -12.5%

CC(C)=CCOc1c2occc2cc2ccc(=O)oc12
Potency [8]: active: 1.78 µM | Potency [9]: inconclusive: 11.2 µM [inhibitor, partial curve] | Potency [3]: active: 12.6 µM | Potency [4]: active: 1.26 µM | Potency [5]: inconclusive: 28.2 µM [activator, partial curve] | Potency [1]: inconclusive: 29.9 µM [inhibitor, single point]

O=C(O)CCCc1ccc(N(CCCl)CCCl)cc1
Potency [2]: inconclusive: 0.235 µM | Potency [1]: inconclusive: 33.5 µM [inhibitor, single point]

COc1cc([C@@H]2c3cc4c(cc3[C@@H](O)C3COC(=O)C32)OCO4)cc(OC)c1O (stereo partly specified)
Potency [2]: active: 0.0418 µM | Potency [1]: active: 0.0372 µM

CNC(=O)c1ccc(N2C(=S)N(c3ccc(C#N)c(C(F)(F)F)c3)C(=O)C23CCC3)cc1F
Potency [2]: inconclusive: 11.8 µM [falling, partial curve] | max response [1]: inactive: -7.61% | outcome [1]: inactive

C=C[C@@H]1CN2CCC1C[C@H]2[C@H](O)c1ccnc2ccccc12 (stereo partly specified)
Potency [2]: inconclusive: 18.7 µM [falling, partial curve, poor fit] | Potency [1]: inconclusive: 37.2 µM [inhibitor, single point]

C=C(C)[C@H]1O[C@H]2CC[C@@]3(C)[C@@](O)(CC[C@H]4[C@@H]5OC(C)(C)[C@H]6C[C@@H]7C(=C)Cc8c(Cl)cc9[nH]c(c5c9c8[C@@]76O)[C@@]43C)[C@]23O[C@@H]3[C@H]1O
outcome [1]: inactive

C[C@](O)(COc1ccc(C#N)cc1)C(=O)Nc1ccc(C#N)c(C(F)(F)F)c1
Potency [2]: inconclusive: 8.33 µM [falling, partial curve] | Potency [1]: inconclusive: 37.2 µM [inhibitor, single point]
